Data reported in PubChem BioAssay AID624170 (National Center for Advancing Translational Sciences (NCATS), 2012).
Among all 410,000 compounds or so, about 850 (0.21%) were called active. Calls come from the whole dose curve; as a rule, active = well fitted inhibition curve with a large enough effect; inconclusive = small, poorly fitted or top-dose-only effect, or another doubt; inactive = no such curve, though single readings can be large or run the other way. The inconclusive results got no clear call from the source. No potency is given beside an inconclusive call; the fits are too rough.

What follows are compounds tested against Glutaminase kidney isoform, mitochondrial (Homo sapiens) (UniProt O94925) (assay: qHTS for Inhibitors of Glutaminase (GLS)). Settings: GLS enzymatic activity, qHTS titration; series mostly up to 45.5 µM.
Text: Glutaminase (GLS) catalyzes the hydrolysis of glutamine into glutamate and ammonia. It plays a critical role in glutaminolysis, which is an important energy source for proliferating cells. It was shown that c-Myc, an oncogenic transcription factor known to regulate microRNAs and to stimulate cell proliferation, increases glutamine metabolism by stimulating the expression of GLS via direct suppression of miR23a and miR23b.
GLS is also thought to play a pathogenic role on HAD using a human HIV-1 infected macrophage system. […] GLS inhibition limits glutamate release and provides neuroprotection against HIV-1 infected macrophages.
The overall goal of this project is to identify small molecule inhibitors of GLS through quantitative high throughput screening (qHTS) of the MLSMR. A validated potent and selective inhibitor can be used as a tool molecule to further study the pharmacology of its target as well as explore its potential therapeutic application in cancer and inflammatory neurological disorders, such as HIV1-associated dementia (HAD) and multiple sclerosis.
NIH Chemical Genomics Center [NCGC] […]
Three 3 uL of hKGA is dispensed into black well 1536-well plates in 45 mM KH2PO4 (pH 8.2), 0.02% Tween-20. […] Plate is centrifuged for 25 sec before an initial fluorescence read is obtained on the ViewLux, after 30 min of RT incubation, the final read is taken on the ViewLux.
Potency is the fitted concentration of half-maximal effect; tags give direction and shape of the fitted curve.

Chain of UniProt O94925 (O94925 whole entry, looked up, canonical isoform): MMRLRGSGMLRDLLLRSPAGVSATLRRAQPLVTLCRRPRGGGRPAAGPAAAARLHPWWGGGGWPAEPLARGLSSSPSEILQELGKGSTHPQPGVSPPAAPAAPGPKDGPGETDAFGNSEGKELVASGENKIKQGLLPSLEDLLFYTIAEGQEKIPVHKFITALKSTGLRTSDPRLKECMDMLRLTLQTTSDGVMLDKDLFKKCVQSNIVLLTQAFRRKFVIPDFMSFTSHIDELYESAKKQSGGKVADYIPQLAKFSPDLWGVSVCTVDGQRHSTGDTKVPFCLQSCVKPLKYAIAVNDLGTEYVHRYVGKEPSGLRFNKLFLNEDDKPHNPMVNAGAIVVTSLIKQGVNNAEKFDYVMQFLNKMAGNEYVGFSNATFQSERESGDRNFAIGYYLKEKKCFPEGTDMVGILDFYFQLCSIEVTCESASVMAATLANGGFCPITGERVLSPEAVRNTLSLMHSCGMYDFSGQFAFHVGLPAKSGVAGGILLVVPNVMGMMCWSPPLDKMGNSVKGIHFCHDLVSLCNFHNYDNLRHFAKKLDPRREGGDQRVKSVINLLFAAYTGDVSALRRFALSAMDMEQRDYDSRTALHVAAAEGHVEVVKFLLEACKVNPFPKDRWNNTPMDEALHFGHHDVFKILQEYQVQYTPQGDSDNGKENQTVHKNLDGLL

Row | Structure (SMILES) | Potency
1 | CCOc1cc(NS(=O)(=O)c2ccc(OC)cc2)c(OCC)cc1NC(C)=O | inconclusive [inhibitor, single point]
